Test results from PubChem BioAssay AID1508624 (National Center for Advancing Translational Sciences (NCATS), 2021).
The whole screen tested about 48,000 compounds, of which about 120 (0.25%) were called active. Not shown: some 4% with an inconclusive outcome. Calls follow the shape of the dose curve; as a rule, active = well fitted activation curve with a large enough effect; inconclusive = small, poorly fitted or top-dose-only effect, or another doubt; inactive = no such curve, though single readings can be large or run the other way. The list shows a part of the results.

Test: Primary qHTS for Identification of Small Molecule Activators of Huntingtin-Antisense Promoter Activity; also: nearly all actives have a fitted effect of over 55% in size
Conditions: HEK293 HTT-AS promoter firefly luciferase reporter, 24 h; series mostly up to 57.5 µM; activity change, positive = activation: at the top concentration
Outline: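 Firefly luciferase signal from promoter-reporter HEK293 cells was scaled between vehicle (0%) and zero RLU (-100%). Compounds were tested at final concentrations of up to 57.5 uM over 24 h at 37 degrees C. PTC124 at 50 uM final served as control inhibitor.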

Activity change, positive = activation, inactive:
CCOc1ccc(NC(=O)CSc2ncc3c(n2)-c2cc(Cl)ccc2N(C)S3(=O)=O)cc1 -16.8%
O=C(O)c1cc(O)c2c(c1)C(=O)c1cccc(O)c1C2=O -7.78% [at 116 µM, percent change from vehicle, -100% = no light]
CC1=C(C(=O)NCc2ccc(C)cc2)C2(CCCCC2)OC1=O -1.91%
Cc1ccc(Nc2c(F)cccc2Cl)c(CC(=O)O)c1 0.366%
Cc1ccc2cccc(NC(=O)C(C)Oc3ccc(C)c(C)c3)c2n1 (stereo unspecified) -21.3%
Cc1noc(Cn2c(=O)c3ccccc3n(CC(=O)Nc3ccc(Cl)cc3)c2=O)n1 -16%
O=C(Nc1cc(Cl)ccc1Cl)C1(c2cccs2)CCOCC1 -20.9%
O=C(CSc1nc2ccccc2nc1Cc1ccc(Cl)cc1)N1CCN(c2ccccc2F)CC1 -3.06%
Cc1ccccc1OCC(=O)Nc1ccc2nc(SCCOc3ccccc3)sc2c1 -1.87%
Cc1ccc(C)c(N2CCN(C(=O)CCCCCn3c(=O)[nH]c4ccccc4c3=O)CC2)c1 2.6%
Cc1ccc(C)c(Cn2c(SCC(=O)N(C)Cc3ccccc3)nc3ccccc32)c1 -21.3%
CN(C(=O)CSc1nc2ccc(NC(=O)CCc3ccccc3)cc2s1)c1ccccc1 -41%
CCOc1ccc(-c2cc(C(=O)N3CCN(c4cccc(C)c4)C(C)C3)c3ccccc3n2)cc1 (stereo unspecified) 0%
CCc1ccccc1NC(=O)C(=O)NCC(c1cccnc1)N1CCc2ccccc21 (stereo unspecified) -29%
Cc1ccc(-c2nnc(Nc3ccc(S(N)(=O)=O)cc3)c3ccccc23)cc1S(=O)(=O)N1CCOCC1 3.24%
COc1ccc2c(c1)Cc1sc(NC(=O)c3cccc(F)c3)nc1-2 13.2%
CCOC(=O)c1ccc(NC(=O)C2CC(=O)N(c3ccc(C(C)C)cc3)C2)cc1 (stereo unspecified) -10.2%
CCc1cccc(NC(c2nnc(-c3ccccc3)o2)c2ccc(F)cc2Cl)c1 (stereo unspecified) -33.3%
Cc1ccc(NC(=O)NCC2CCN(Cc3cccc(Cl)c3)CC2)cc1Cl -12.7%
COc1cccc(CNC(=O)CSc2nc3ccccc3nc2Cc2ccc(C)cc2)c1OC -14.1%
CCCn1c2ccccc2c2cnn(CC(=O)NCCc3ccc(OCC)c(OCC)c3)c(=O)c21 -26.6%
Cc1ccc(NC(=O)CCNS(=O)(=O)c2ccc3c(c2)CCN3C(=O)C2CC2)c(Cl)c1 -29.3%
CCOc1ccccc1NC(=O)CSc1ncc(S(=O)(=O)c2ccc(C(C)(C)C)cc2)c(=O)[nH]1 -13.9%
CCCCNC(=O)CCn1c(=O)c2cccn2c2ccc(F)cc21 -15.9%
COc1ccc(Nc2ncc(C(=O)Nc3cc(Cl)c(OC)cc3OC)c3ccccc23)cc1 -24.2%
O=C(CCS(=O)(=O)c1nc(-c2ccc3c(c2)OCO3)cc(C(F)(F)F)n1)Nc1ccc(F)c(Cl)c1 -75.6%
